Measurements: article PMC12040169 (PLOS Biology, 2025)
Some of the results follow.

Test system: T1, C. trachomatis L2/434/Bu expressing GFP (CTL2-GFP)
T1 construct: L2/434/Bu GFP intracellular growth in HeLa cells
Parameters: species or system HeLa; C. trachomatis total inclusion area by high-content imaging, normalised to DMSO
Settings: total inclusion area; 28.5 h, 10 µM; inhibitor
Procedure, shortened: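 High-content imaging followed the bulk GFP/resorufin measurement: fixed, Hoechst-stained cells were scored for GFP inclusions and host nuclei per well. Total inclusion area and count served as growth proxies, nuclei number as the viability proxy. MIC calculation matched the bulk assay.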

| Structure (SMILES) | % of control remaining |
| --- | --- |
| Cc1cc(-c2ccc(/N=C/c3cccc(O)c3O)c(C)c2)ccc1/N=C/c1cccc(O)c1O [CBK261613] | 93.5226 |
| C#CCNC(=O)[C@H]1O[C@H](CCN2CCCCC2)CC[C@@H]1O [CBK288728] | 111.134 |
| CCCN1CC(NS(=O)(=O)c2cc(OC)c(Cl)cc2OC)CC1=O (centres unmarked) [CBK307581] | 97.3163 |
| c1ccc2c(c1)CCN(Cc1ccc3ccccc3c1)C2 [CBK126397] | 81.6683 |
| Oc1ccccc1-c1ccnc(SC(F)F)n1 [CBK021971] | 52.8053 |
| CN(Cc1cccn1C)C(=O)c1cc(-c2cnn(C)c2)[nH]n1 [CBK283325] | 109.312 |
| CCCN1CCC(NC(=O)Cn2nnc3ccccc3c2=O)CC1 [CBK305581] | 55.9859 |
| COc1c(C)cnc(CNC2CCCN(Cc3noc(C)n3)C2)c1C (centres unmarked) [CBK305350] | 43.0383 |
| Cc1ccc(C#N)c(NCc2ccccc2CN2CCCC2CO)n1 (centres unmarked) [CBK304076] | 89.28 |
| COCC(=O)N1CCC2(CC1)CC(=O)c1cc(Cl)cc(Cl)c1O2 [CBK156440] | 107.848 |
| O=S(=O)(Nc1cccc(OC(F)(F)F)c1)c1ccc(N2CCNCC2)c2ccccc12 [CBK003935C] | 53.6315 |
| O=C(O)CN(c1ccc(F)cc1)S(=O)(=O)c1ccc2c(c1)OCCO2 [CBK287096] | 111.219 |
| O=C(NCCc1cc2ccccc2[nH]1)Nc1cccc2ccccc12 [CBK269246] | 65.7286 |
| COc1ccc(-c2ccc(C(=O)N(C)C)c(N(C)C(C)=O)n2)cc1 [CBK076500] | 98.9593 |
| COc1cccc(-c2ccc(NC(=O)c3ccc(Cn4cnnn4)cc3)cc2)c1 [CBK285850] | 99.7565 |
| CC(C)OCC(=O)NC1CCCc2nc(N3CCC(CO)CC3)ncc21 (centres unmarked) [CBK307520] | 63.9851 |
| COc1cccc(CN2CCCC(NC(=O)NCc3cccs3)C2)c1 (centres unmarked) [CBK307357] | 64.4663 |
| Nc1ncc(-c2ccc(Cl)cc2)nc1-c1ccc(CCC(=O)O)cc1 [CBK064063] | 99.6343 |
| O=C(O)c1cc(NC(=O)c2ccco2)cc(C(=O)O)c1 [CBK263360] | 89.1267 |
| CCCC(=O)N1CCC(c2cc3n(n2)[C@@H](C(F)(F)F)C[C@@H](C)N3)C1 (some centres unmarked) [CBK282237] | 96.7703 |
| Nc1ncnc(N(c2ccccc2)c2ccccc2)n1 [CBK288139] | 99.1416 |
| O=C(O)CCSCC(=O)c1ccc(OC(F)F)cc1 [CBK286991] | 120.722 |
| CCCCOC(=O)c1ccc(NC(=O)NCCc2cccs2)cc1 [CBK043381] | 78.6284 |
| COc1cc(-c2cncc(N(CCO)CCO)n2)cc(OC)c1OC [CBK065544] | 101.811 |
| O=C(Nc1ccc(N2CCN(Cc3ccccc3F)CC2)cc1)c1cccnc1 [CBK267250] | 119.01 |
| CCc1nnc(NS(C)(=O)=O)s1 [CBK062197] | 87.416 |
| Cc1cc(CNC(=O)C(C)Cn2cccn2)on1 (centres unmarked) [CBK281486] | 82.2276 |

| Structure (SMILES) | % of control remaining |
| --- | --- |
| CCOC(=O)N1CCN(S(=O)(=O)c2ccc3[nH]c(=O)oc3c2)CC1 [CBK304679] | 112.422 |
| CCc1nn(CC(=O)NC(C)(C)C)c(=O)c2cc3sccc3n12 [CBK284056] | 101.083 |
| CC(C)C(NC(=O)c1ccc(CS(C)(=O)=O)cc1)c1ccc(C(C)(C)C)cc1 (centres unmarked) [CBK296705] | 95.5905 |
| O=C(Nc1nc2ccccc2[nH]1)C1c2ccccc2Oc2ccccc21 [CBK265454] | 90.5968 |
| c1csc(C2CN(c3nccn4cnnc34)CCO2)c1 (centres unmarked) [CBK306380] | 64.4888 |
| OCc1ccccc1-c1cc(N2CCN(Cc3cccnc3)CC2)n2nccc2n1 [CBK037105] | 136.387 |
| Cc1cccc(C2(O)CCN(C(=O)c3cc(C(C)C)nn3C)CC2)c1 [CBK282163] | 85.6115 |
| CN(C)CCN1C(=O)C2C3c4ccccc4C([N+](=O)[O-])(c4ccccc43)C2C1=O (centres unmarked) [CBK269286] | 82.3871 |
| CC(C)c1ccc(S(=O)(=O)NCc2csc3ccccc23)cc1 [CBK044662] | 89.4717 |
| CC(C)c1cc2c(s1)NC(c1ccccc1)NC2=O (centres unmarked) [CBK288209] | 96.9013 |
| CC(=O)Nc1nc(-c2cccs2)c(-c2cc(C)no2)s1 [CBK284493] | 113.433 |
| C=CCn1nnc(NC(=O)COc2ccccc2)n1 [CBK288131] | 108.562 |
| COCCCn1c(=O)[nH]c2ncc(-c3cccnc3)nc21 [CBK064929] | 136.953 |
| COc1ccc(-c2c(C(F)(F)F)oc3c(CN4CC(C)OC(C)C4)c(O)ccc3c2=O)cc1OC (centres unmarked) [CBK217829] | 103.324 |
| Cn1ccnc1CN1C[C@@H]2CN(C(=O)C3CCCC3)C[C@]2(C(=O)O)C1 [CBK307201] | 70.2847 |
| Cc1noc2nc(-c3ccco3)cc(C(=O)NCc3nc4ccccc4[nH]3)c12 [CBK295608] | 100.759 |
| O=C(COc1ccc(S(=O)(=O)N2CCCCC2)cc1)NCc1ccccn1 [CBK268517] | 113.369 |
| CCOC(=O)N1CCC(NS(=O)(=O)c2cc(Cl)sc2Cl)CC1 [CBK045462] | 108.338 |
| O=C(c1ccco1)N1CCN(c2ccc(-c3ccc(F)c(Cl)c3)cn2)CC1 [CBK037683] | 87.1259 |
| Oc1ccccc1Nc1nc(NC2CCCC2)c2ccccc2n1 [CBK268402C] | 36.8575 |
| Cc1c(CN2CCC(N(C)CCN(C)C)CC2)oc2ccccc12 [CBK282038] | 86.4253 |
| NS(=O)(=O)c1ccc(NC(=O)CCSc2ccc(Cl)cc2)cc1 [CBK269322] | 104.018 |
| CC(Oc1ccccc1Br)c1nc(-c2nonc2N)no1 (centres unmarked) [CBK026982] | 71.0807 |
| CNc1nc2c(ncn2C2CC(O)C(CO)O2)c(=O)[nH]1 (centres unmarked) [CBK201312] | 135.47 |
| O=c1[nH]c2ncc(-c3ccoc3)nc2n1Cc1ccco1 [CBK064639] | 115.254 |
| CC1(C)CCCN(Cc2nnnn2-c2ccc(S(C)(=O)=O)cc2)CC1 [CBK306177] | 52.871 |
| Cc1nc(C2CCCN(C(=O)c3ccnn3C)C2)c2sccn12 (centres unmarked) [CBK285235] | 91.0214 |

| Structure (SMILES) | % of control remaining |
| --- | --- |
| CC(=O)Nc1ccc(SC(C)c2nsc(NS(=O)(=O)c3ccc(-c4ccccc4)cc3)n2)cc1 (centres unmarked) [CBK047508] | 72.8516 |
| CSc1ccc(CN2CCN(S(=O)(=O)Cc3ccccc3)CC2)cc1 [CBK264301G] | 66.3617 |
| CC(C)(C)c1cc2cc(NC(=O)C3CC3)ccc2[nH]1 [CBK019994] | 68.9151 |
| O=C(Nc1cccc(Cl)c1)N[C@H]1C[C@H]2C(=O)NC[C@@H](CCC(=O)N3CCCC3)N2C1 [CBK289003] | 105.414 |
| Cc1cc(NC(=O)c2ccc3c(c2)OCCO3)c2ccccc2n1 [CBK122739] | 93.5317 |
| Cc1ccc(-c2nnc3sc(-c4cnccn4)nn23)cc1 [CBK268258] | 101.948 |
| CN(C)C(=O)c1ccc(-c2ccc(COC3CCN(C(=O)c4cc5ccccc5o4)CC3)c(S(C)(=O)=O)c2)cc1 [CBK155965] | 64.9588 |
| COc1ccccc1CNCCc1ccc(S(N)(=O)=O)cc1 [CBK269852C] | 99.6822 |
| O=C(O)C(O)C(O)c1nc2ccccc2[nH]1 (centres unmarked) [CBK260955] | 75.7086 |
| O=C(NCC1CCCCC1)C1(Cc2ccc(-c3cccnc3)cc2)CCOCC1 [CBK285591] | 94.0155 |
| CCc1nnc(NS(=O)(=O)c2ccc(NC(=O)COc3ccc(Cl)cc3Cl)cc2)s1 [CBK200050] | 40.2939 |
| O=C(CCn1c(C(F)(F)F)cc2cccnc21)NC1CCCOC1 (centres unmarked) [CBK284867] | 63.2376 |
| CN(C)C(=O)Cn1nc(-c2cc3c(s2)CCC3)oc1=O [CBK284715] | 77.8182 |
| O=C(CC1C(=O)NCCN1C(=S)Nc1ccccc1)Nc1ccc2c(c1)OCCO2 (centres unmarked) [CBK267999] | 75.455 |
| COc1ccc(-n2c(=O)[nH]c3ncc(-c4ccco4)nc32)c(C)c1 [CBK065019] | 85.2889 |
| CN(c1ncccc1C#N)C1CCN(C(=O)OCc2ccccc2)CC1 [CBK023869C] | 99.7396 |
| Cc1nc(S(=O)(=O)Cc2c(F)cccc2Cl)n(CC2CCCO2)c1C (centres unmarked) [CBK304706] | 35.2537 |
| CS(=O)(=O)N[C@H]1CO[C@H]2[C@@H]1OC[C@@H]2Nc1nccc(-c2cccs2)n1 [CBK289519] | 97.8351 |
| CC(C)(C)c1cc(CCC(=O)N/N=C/c2ccco2)cc(C(C)(C)C)c1O [CBK261960] | 106.018 |
| Cn1c(Cc2ccccc2)nnc1SCC(=O)Nc1ccc(N2CCOCC2)cc1 [CBK269750] | 91.431 |
| COc1ccc(C(C)c2cc3c(cc2O)OCO3)c(F)c1 (centres unmarked) [CBK200101] | 84.5047 |
| Cc1nc(SCCO)c2c(=O)n(C)c(=O)n(CC(C)C)c2n1 [CBK306114] | 45.9468 |
| O=c1nc2n(Cc3ccccc3)c3ccccc3cc-2c(=O)[nH]1 [CBK287958] | 96.7062 |
| Cc1c(C(=O)O)sc2ncn(CCCOc3ccc(Cl)cc3)c(=O)c12 [CBK286695] | 71.7869 |
| CCOC(=O)c1cccc(NS(=O)(=O)c2cccc3cccnc23)c1 [CBK034345] | 72.1504 |
| O=C(O)C1Nc2c(C(=O)N3CCOCC3)cccc2C2C=CCC12 (centres unmarked) [CBK275006] | 58.5701 |
